Experimental data reported in publication PMC5726399 (Neuropharmacology, 2017).

How the values were obtained:
[1] = system: NMDA receptor-induced substance P release; experiment: NMDA-induced NK1R internalization in slices preincubated with BVT948; set-up: species or system rat; settings: 10 μM BVT948; 1 μM DAMGO, 100 μM SQ22536 or 10 μM KT5720, 60 min
[2] = system: NMDA receptor-induced substance P release; experiment: NMDA-induced NK1R internalization in slices preincubated with BDNF; set-up: species or system rat; settings: 20 ng/ml BDNF; 1 μM DAMGO, 100 μM SQ22536 or 10 μM KT5720, 60 min

SMILES | inhibition of NMDA-induced NK1R internalization in presence of BVT948 [1] | inhibition of NMDA-induced NK1R internalization in presence of BDNF [2]
Nc1ncnc2c1ncn2C1CCCO1 (stereo not shown) [SQ22536, 9-(Tetrahydro-2-furanyl)-9H-purin-6-amine] | still occurred | did not preclude the inhibition
CCCCCCOC(=O)[C@]1(O)C[C@@H]2O[C@@]1(C)n1c3ccccc3c3c4c(c5c6ccccc6n2c5c31)C(=O)NC4 [KT5720, (9R,10S,12S)-2,3,9,10,11,12-Hexahydro-10-hydroxy-9-methyl-1-oxo-9,12-epoxy-1H-diindolo[1,2,3-fg:3′,2′,1′-kl]pyrrolo[3,4-i][1,6]benzodiazocine-10-carboxylic acid, hexyl ester] | still occurred | did not preclude the inhibition
